Here are results for 44 sequences from the supplement of paper PMC11417369.

± gives the standard deviation of the averaged measurements. The list shows a part of the results.

The assay has as its system PfAP2-LT AP2 domain (GST-tagged). Kind of assay: gcPBM binding intensity (ln(normalized median fluorescence intensity)); higher = stronger DNA binding. The gist of the method: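 DNA-binding domains from P. falciparum, fused to GST and produced in E. coli, were put on an Agilent 4 × 180k double-stranded probe array for 1 h in 1× PBS holding 1% milk, 0.2 mg/ml BSA, 0.5% salmon testes DNA and 0.03% Triton X-100. Probes were primer-extended, 36 bp long and drawn from intergenic genomic regions, with negative controls included. After Alexa488 anti-GST antibody detection and a 488 nm scan, binding intensity was set as the highest Masliner-normalised natural-log median intensity across replicate spots of either probe orientation.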
In the case of “AATATATAGCTAAAAACACACAAATATATACACATA [CACACA_site9203]”, the “gcPBM binding intensity (ln)” value was 9.13 ± 0.38. With “TTTTCGTAACTGATTCAACACACAAAAGGGGGAAAA [CACACA_site8517]”, the “gcPBM binding intensity (ln)” value worked out at 9 ± 0.27. On to “GGATAGGCATAACATAGTACGTACAAATATATATAT [XGTACX_site454]”, for which the “gcPBM binding intensity (ln)” value came to 9.26 ± 0.47.

Regarding “TATTTTATTATTATTATTAGTATGATTTCTTTATAG [CACACA_negctrl_site550]”, the “gcPBM binding intensity (ln)” value worked out at 8.52 ± 0.51. Turning to “ATAAAAAAAAAAACAGTAAAATTATAATTATAATTA [TGCATGCA_negctrl_site356]”, the “gcPBM binding intensity (ln)” value stood at 8.53 ± 0.44. With “TTAACAAATAAACACACACACACACCCAAAAAAAAA [CACACA_site8068]”, the “gcPBM binding intensity (ln)” value turned out to be 10.3 ± 0.2. Take “AAAAGCACAAAAAATACACACACAAAAAATAAAAAA [CACACA_site8545]”: the “gcPBM binding intensity (ln)” value stood at 9.59 ± 0.4.

Turning to “TAATGATAAATACATACACACAAAAAATGATATATA [CACACA_site7258]”, the “gcPBM binding intensity (ln)” value worked out at 9.12 ± 0.43. Next, “TATATCCCTTAGAATACACACCCATATGAGTGTGAA [CACACA_site8965]”: 8.74 ± 0.34; “ACAAAAATTAAATAAAGTACATTTTTAAAATACGTA [XGTACX_site3880]”: 8.58 ± 0.58. For the sequence “AATGTAAAATCTTCATATACATTTAAGTCTGTATTT [TGCATGCA_negctrl_site183]”, the “gcPBM binding intensity (ln)” value is 8.77 ± 0.49. As to “TGTATACATTCTGAATGTACGGAACACCTCATAACT [XGTACX_site7240]”, the “gcPBM binding intensity (ln)” value was determined as 8.87 ± 0.45.

Turning to “TTTGTAATAAATAAGAGTACAAGTATGGTTCCACTA [XGTACX_site2579]”, the “gcPBM binding intensity (ln)” value amounted to 8.63 ± 0.48. Next, “TATTTATTGTGACACTTATATTATTTTATGATTAAA [CACACA_negctrl_site525]”: 8.55 ± 0.46. Take “AATATATGGTTTCATGATATTAAATTCAAAATAATG [CACACA_negctrl_site318]”: the “gcPBM binding intensity (ln)” value was 8.48 ± 0.49. In the case of “TTTTCATTTGTGACAGTGCAAAATGTTATATTAAAA [GTGCAC_site9647]”, the “gcPBM binding intensity (ln)” value amounted to 8.46 ± 0.34.

As to “TATAAAATGATGATATGTACTTATGTAGTTTTTTTA [XGTACX_site8711]”, the “gcPBM binding intensity (ln)” value was 8.54 ± 0.48. For the sequence “AATAATACATCCTTAGTGCAGAAATAAAAATTAAGC [GTGCAC_site9955]”, the “gcPBM binding intensity (ln)” value was 8.93 ± 0.35. Turning to “TAAATACTTGTATATAGTACAAGTTGTTTTTTTTAA [XGTACX_site5643]”, the “gcPBM binding intensity (ln)” value was 8.34 ± 0.45. For the sequence “ATATGAAAAAGAACTTGTACTAAAGTGGCATATTAT [XGTACX_site8520]”, the “gcPBM binding intensity (ln)” value amounted to 8.94 ± 0.38. Consider “CATATATATTTTATTTGTACGTATAAAAAAACAAAA [XGTACX_site4253]”, for which the “gcPBM binding intensity (ln)” value worked out at 8.59 ± 0.36.

With “AAAAAAAAAAAAAACACACACATATAAATATAAATA [CACACA_site6972]”, the “gcPBM binding intensity (ln)” value came to 9.37 ± 0.45. With “ATTATTTGAAACTATTGTACATTTAAAAACATTTTT [XGTACX_site4896]”, the “gcPBM binding intensity (ln)” value is 8.32 ± 0.54.

With “TGGAACCTTTAAAATACACACCCAAATCCTTTGAAA [CACACA_site7671]”, the “gcPBM binding intensity (ln)” value was 8.69 ± 0.35.

Consider “ATTGGACTATAAATAGGTACACATATATATATATAT [XGTACX_site7562]”, for which the “gcPBM binding intensity (ln)” value was 9.64 ± 0.37. In the case of “TTATATTATGTTCAATCAAAAATTATTTTTAAAAAA [XGTACX_negctrl_site595]”, the “gcPBM binding intensity (ln)” value was found to be 7.9 ± 0.41. Turning to “AATGTACACCCACCCACACACAAACAAATATATATA [CACACA_site5521]”, the “gcPBM binding intensity (ln)” value worked out at 10.1 ± 0.4.

Turning to “GAAAAAAGAAAAAAAAGTACACACATGTATATTAAT [XGTACX_site5265]”, the “gcPBM binding intensity (ln)” value is 9.21 ± 0.39. As to “AATGTGTTTTTTTTTTTTTTTTTTTTCAATCTCTAT [CACACA_negctrl_site794]”, the “gcPBM binding intensity (ln)” value came out at 8.62 ± 0.53. As for “TTTTTGTTTGAACACTGTACGTATAAATATAAAAGT [XGTACX_site6476]”, the “gcPBM binding intensity (ln)” value stood at 8.61 ± 0.45. As for “TTTCAAATTTAATACACACACAAGTATATATTTATC [CACACA_site3947]”, the “gcPBM binding intensity (ln)” value amounted to 9 ± 0.35. As to “TTGTGTTATCACACGAAGGGGATAAGACATAAATGT [TGCATGCA_negctrl_site368]”, the “gcPBM binding intensity (ln)” value amounted to 8.79 ± 0.39. As to “TATATATAAAAACACACACACACACCCTATAATTAT [CACACA_site4063]”, the “gcPBM binding intensity (ln)” value amounted to 10.18 ± 0.042.

As to “TATATACCTATATACACACACATATATAAATAAATA [CACACA_site7341]”, the “gcPBM binding intensity (ln)” value stood at 9.34 ± 0.34.

As to “TATTTCTGATTACATACACACATATACAGATATGAC [CACACA_site7490]”, the “gcPBM binding intensity (ln)” value was 9.07 ± 0.23. With “AAAAAAAAAAAAAGTACACACATACCTATAAATATA [CACACA_site6937]”, the “gcPBM binding intensity (ln)” value worked out at 9.12 ± 0.46.

As to TTTACCTCTTCAATGGTGCAATAACTCAAAAATTTG, the “gcPBM binding intensity (ln)” value amounted to 8.37 ± 0.39. For the sequence “TTTTTATTTTATTAGTGTACTTTATATTTAACAATA [XGTACX_site1175]”, the “gcPBM binding intensity (ln)” value turned out to be 8.57 ± 0.47.

On to “ATAAATAAAATAAAAGCACACAAAATGTAAATAATT [CACACA_site8895]”, for which the “gcPBM binding intensity (ln)” value was determined as 9.12 ± 0.42.

As for “TATATATTTATAAATGAACACACACCCAATTTGAAT [CACACA_site9113]”, the “gcPBM binding intensity (ln)” value came out at 9.38 ± 0.3.

For the sequence “TTTATATACATTTTAAATTTTAATGTAACCCATGGG [TGCATGCA_negctrl_site115]”, the “gcPBM binding intensity (ln)” value stood at 8.31 ± 0.53. Take “TTTATTTTTATAAGAGCATGCACTGTTTAAAATGGT [TGCATGCA_site628]”: the “gcPBM binding intensity (ln)” value worked out at 8.51 ± 0.4. Turning to “TTATATATAATATATACACACACATGTATATATAAA [CACACA_site8603]”, the “gcPBM binding intensity (ln)” value was determined as 9 ± 0.28. In the case of “TTTGTATTGTGCAGATGTACATTATAATATTGGATT [XGTACX_site5033]”, the “gcPBM binding intensity (ln)” value was found to be 8.71 ± 0.45.
